Key:
[1] = target: T1, human IL2Rα Fc fusion protein (human, UniProt P01589 22-213, limits assumed); assay: ELISA on coated receptor-Fc, anti-His detection, single point 1 µM
T1 construct: also called CD25; not shown: Fc part
T1 sequence (looked up): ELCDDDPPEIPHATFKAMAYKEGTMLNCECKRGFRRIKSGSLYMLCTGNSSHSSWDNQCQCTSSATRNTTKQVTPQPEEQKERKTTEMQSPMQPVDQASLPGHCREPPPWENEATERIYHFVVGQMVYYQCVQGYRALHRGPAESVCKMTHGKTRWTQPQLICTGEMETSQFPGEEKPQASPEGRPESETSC
Description: Back-mutations were characterized for their binding activities to IL2Rβ and IL2Rα receptors by ELISA. Briefly, 384 well plate was immobilized with human IL2Rα and IL2Rβ Fc fusion proteins at a final concentration of 2 μg/mL in 1× PBS in total volume of 25 μL per well. The plate was incubated overnight at 4° C. and blocked with 80 μL of superblock per well for 1 hour. […] The IL2 mutant binding was detected by adding 25 μL of anti-His HRP diluted at 1:5000 in 1× PBST. In between each step, the plate was washed three times with 1× PBST using a plate washer. […] The plate was then developed with 25 μL of TMB substrate for five minutes and stopped by adding 25 μl of 2N sulfuric acid. The plate was read at OD450 nm Biotek plate reader (Table 6) and the data was analyzed with Prism 8.1 software to generate bar graph (FIG. 5).

[2] = target: T1, human IL2Rα Fc fusion protein; assay: SPR (Biacore T200), receptor captured on Protein A chip, IL2 at 100 nM and 20 nM
Description: (§1) The assay was run with Biacore T200 control software version 2.0. For each cycle, 1 μg/mL of human IL2Rβ or IL2Rα was captured for 60 seconds at flow rate of 10 μL/min on flow cell 2 in 1× HBSP buffer on Protein A sensor chip. 100 nM and 20 nM of HIS tag purified engineered IL2 mutant was injected onto both reference flow cell 1 and IL2Rβ or IL2Rα captured flow cell 2 for 150 seconds at flow rate of 30 μL/min followed by washing for 300 seconds. The flow cells were then regenerated with Glycine pH 2 for 60 seconds at a flow rate of 30 μL/mins. The kinetics data was analyzed with Biacore T200 evaluation software 3000. The specific binding response unit was derived from subtraction of binding to reference flow cell 1 from target flow cell 2.

[3] = target: T2, human IL2Rβ Fc fusion protein (human, UniProt P14784 27-239); assay: as above
T2 construct: also called ILR2β; CD122; not shown: Fc part
T2 sequence (looked up): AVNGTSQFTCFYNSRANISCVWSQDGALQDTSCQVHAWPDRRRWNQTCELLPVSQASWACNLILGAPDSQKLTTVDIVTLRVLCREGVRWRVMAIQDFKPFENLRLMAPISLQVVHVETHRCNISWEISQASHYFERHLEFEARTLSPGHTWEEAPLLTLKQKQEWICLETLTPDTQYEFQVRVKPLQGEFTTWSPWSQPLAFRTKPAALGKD
Description: as §1

[4] = target: T2, human IL2Rβ Fc fusion protein; assay: ELISA on coated receptor-Fc, anti-His detection; grade by OD450 (medium: 0.7-1.5)
Description: Mammalian cell-produced agonists were characterized for their binding activities to respective IL2Rβ and IL2Rα receptors by ELISA. Briefly, 384 well plate was immobilized with human IL2Rα and IL2Rβ Fc fusion proteins at a final concentration of 2 μg/mL in 1× PBS in total volume of 25 μL per well. The plate was incubated overnight at 4° C. and blocked with 80 μL of superblock per well for 1 hour. The purified clones were added to IL2Rα or IL-2Rβ wells in parallel in duplicates as a titration, with the highest concentration of 1 μM, followed by a 10 point 5× serial dilution of the clones. The binding activity was detected by adding 25 μL of anti-His HRP diluted at 1:5000 in 1× PBST. In between each step, the plate was washed three times with 1× PBST using a plate washer. The plate was then developed with 25 μL of TMB substrate for five minutes and stopped by adding 25 μL of 2N sulfuric acid. The plate was read at OD450 nm Biotek plate reader and the bar graph at 1 μM of IL2 was generated with Prism 8.1 software (FIG. 2).

Average OD (450 nm) [1]: 3.85 OD450
Kd [2]: 11.9 nM
Kd [3]: 283 nM
OD450 [4]: 0.7 to 1.5 od
B1: WT-IL2 (IL2 with wild-type IL2Rα and IL2Rβ binding domains and T3A and C125S substitutions) (ligand)
chain: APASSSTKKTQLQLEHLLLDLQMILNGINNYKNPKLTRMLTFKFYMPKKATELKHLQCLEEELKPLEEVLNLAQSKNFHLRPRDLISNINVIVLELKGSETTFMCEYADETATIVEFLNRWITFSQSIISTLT
notes: One molecule is kept for both; also called IL2 WT; human IL2 wt

From US20250326813A1 (ELPIS BIOPHARMACEUTICALS, published 2025)
